Results from PMC12136788.
The other results are listed elsewhere or left out.

B1: chrX:149582234:149583179:-|CDS|ENSG00000267978|control|control|control (ssRNA)
RNA: GGGAGUUCUACAGUCCGACGAUCUCCUACAUCCUUGUCACUGCUCUUGGCCUCUCGUGCGAUAGCAUGCUGGGUGAUGGUCAUAGCAUGCCCAAGGCCGCCCUCCUGAUCAUUGUCCUGGGUGUGAUCCUAACCAAAGACAACCAACAGAGGAUUGAGCAUCA
B2: chr3:25618756:25618858:-|CDS|ENSG00000077097|unk|total|mutant (ssRNA)
RNA: GGGAGUUCUACAGUCCGACGAUCUAUAUAAGUUAAAAUACCAGUACAGAUCUAUAUGAUCUGCAAAGUAUAUGUGUUUUGCUCCGGUACUUUUUGAUCAUAUGGGAUGUCUGAAGAAAUAUGAAACUGUGCAAGACAUUCUGACAACAGAGGAUUGAGCAUCA
B3: chr12:100341478:100341579:+|3pUTR|ENSG00000136021|unk|total|mutant (ssRNA)
RNA: GGGAGUUCUACAGUCCGACGAUCCUAUUCUCCUAUUGCUAAAUGUGUGAUAUACCGAGAGGAUGUAUAAAAGGAAAUGGAAACCGACUAUGUACUUGUCUGGUUUUUGUUUGUUUUUAUUUUGGAAUGCUUAUAAGCCUCCUUCAACAGAGGAUUGAGCAUCA
B4: ENSG00000070961:be:win_2351|CDS|ENSG00000070961|bound_else_gene|NA|bound_elsewhere_windowed (ssRNA)
RNA: GGGAGUUCUACAGUCCGACGAUCCUGUCUCAGACCAACGCCAGGUUGUAGCUGUAACUGGUGAUGGUACAAAUGAUGGCCCAGCACUAAAGAAAGCAGAUGUUGGAUUUGCAAUGGGUAUUGCUGGAACUGAUGUAGCUAAAGCAACAGAGGAUUGAGCAUCA
B5: ENSG00000136451:be:win_3501|3pUTR|ENSG00000136451|bound_else_gene|NA|bound_elsewhere_windowed (ssRNA)
RNA: GGGAGUUCUACAGUCCGACGAUCUCCACAGUACAAAAAUGGUUUGUUUUUAAUAUGUAGAGCAUUAUGUGUGGACUACUGGAAGGACUCGUGUAGGGAAAGCCCAAGAAUGACCUUGCUGAGGCCUGGAUUGGGAGGCACAGUCAACAGAGGAUUGAGCAUCA
B6: chr14:92131016:92131127:+|CDS|ENSG00000165934|unk|total|mutant (ssRNA)
RNA: GGGAGUUCUACAGUCCGACGAUCACCCUUUCUGGGGUCCAAGAAGAAUCUGCCCUUUGCUAUCUUCUCCAAGUUGAUGAGUUCCGAUUUUUAUUGGACUGUGGCUGGGAUGAGCACUUUUCUAUGGAUAUUAUUGAUUCCCUGCAACAGAGGAUUGAGCAUCA

What follows are binders tested against MSI1 full-length (mouse, UniProt Q61474 1-362) (assay: nsRBNS (natural sequence RNA bind-n-seq); RBNS binding buffer (assumed for nsRBNS): 25 mM Tris pH 7.5, 150 mM KCl, 3 mM MgCl2, 0.01% Triton X-100, 500 ug/ml BSA, 20 U/ml SUPERase-In, 4 C; UNK is unkempt and MSI1 is Musashi-1; names of the RNAs are library labels; protein concentration not given here; high values mean tight binding).
Chain of UniProt Q61474 (Q61474 whole entry): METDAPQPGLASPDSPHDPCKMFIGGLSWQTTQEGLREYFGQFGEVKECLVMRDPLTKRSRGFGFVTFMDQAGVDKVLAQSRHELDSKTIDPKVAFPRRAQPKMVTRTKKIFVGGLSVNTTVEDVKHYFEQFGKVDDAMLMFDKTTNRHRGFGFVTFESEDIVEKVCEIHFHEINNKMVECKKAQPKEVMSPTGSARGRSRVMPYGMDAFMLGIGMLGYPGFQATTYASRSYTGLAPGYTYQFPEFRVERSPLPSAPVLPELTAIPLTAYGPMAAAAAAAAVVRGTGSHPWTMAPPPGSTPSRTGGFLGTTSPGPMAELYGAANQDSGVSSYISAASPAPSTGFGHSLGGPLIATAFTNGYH

| Binder | binding signal [enrichment R] |
| --- | --- |
| B1 | 0.444 |
| B2 | 0.423 |
| B3 | 0.239 |
| B4 | 0.684 |
| B5 | 0.489 |
| B6 | 0.295 |
